In the supplement of paper PMC4967469:
A lower IC50 marks a more sensitive line; where the fit passes the top or lowest dose, that dose stands as a limit. For AUC the same curve is integrated over the 256-fold range of doses and scaled to a fraction; it is 1 without any effect and falls as sensitivity rises. Where the top dose is marked as inferred, it was derived from the fitted curves, not read from the paper. For some assays here: Drugs with an entry number were screened twice under separate entries, and the two screens often disagree.

Key:
Assay in all cases: Viability of human cancer cell lines after 72 h of drug (GDSC screen)
Shikonin = compound: CC(C)=CC[C@@H](O)C1=CC(=O)c2c(O)ccc(O)c2C1=O [Shikonin]; details: top dose 16 µM; top dose inferred
Procedure: (§1)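 Human cancer cell lines in 384-well plates, medium with 10% serum, drug for 72 h over a 256-fold dose range (nine 2-fold or five 4-fold steps up to the top dose). Adherent lines were fixed and stained with the nucleic acid dye Syto60, suspension lines read with resazurin; signal relative to control wells, capped at 0 and 100%. One two-parameter sigmoid per drug and line, fitted in a mixed model over all curves with the slope shared within a line.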

CGP-082996 (CINK4) = compound: CCNc1cc(NC2CCC(O)CC2)nc(Nc2ccc3c(ccn3Cc3ccccc3)c2)n1 [CGP-082996 (CINK4)]; details: top dose 5.12 µM; top dose inferred
Procedure: as §1

HG-5-113-01 = compound: CNC(=O)c1ccc(Nc2cc(Nc3ccccc3S(=O)(=O)C(C)C)c3cc[nH]c3n2)nc1 [HG-5-113-01]; details: top dose 10 µM; top dose inferred
Procedure: as §1

A-770041 = compound: COc1cc(-c2nn([C@H]3CC[C@H](N4CCN(C(C)=O)CC4)CC3)c3ncnc(N)c23)ccc1NC(=O)c1cc2ccccc2n1C [A-770041]; details: top dose 5.12 µM; top dose inferred
Procedure: as §1

XMD8-85 = compound: COc1cc(N2CCN(C)CC2)ccc1Nc1ncc2c(n1)N(C)c1ccccc1C(=O)N2C [XMD8-85]; details: top dose 8 µM; top dose inferred
Procedure: as §1

BMS-536924 = compound: Cc1cc(N2CCOCC2)cc2[nH]c(-c3c(NC[C@@H](O)c4cccc(Cl)c4)cc[nH]c3=O)nc12 [BMS-536924]
Procedure: as §1

BIRB 0796 = compound: Cc1ccc(-n2nc(C(C)(C)C)cc2NC(=O)Nc2ccc(OCCN3CCOCC3)c3ccccc23)cc1 [BIRB 0796]; details: top dose 10 µM; top dose inferred
Procedure: as §1

SB-525334 = compound: Cc1cccc(-c2[nH]c(C(C)(C)C)nc2-c2ccc3nccnc3c2)n1 [SB-525334]; details: top dose 20 µM; top dose inferred
Procedure: as §1

VX-702 = compound: NC(=O)c1ccc(N(C(N)=O)c2c(F)cccc2F)nc1-c1ccc(F)cc1F [VX-702]; details: top dose 2 µM; top dose inferred
Procedure: as §1

Olaparib = compound: O=C(c1cc(Cc2n[nH]c(=O)c3ccccc23)ccc1F)N1CCN(C(=O)C2CC2)CC1 [Olaparib]
Procedure: as §1

Wee1 inhibitor 681640 = compound: O=C1NC(=O)c2c1c(-c1ccccc1Cl)cc1[nH]c3ccc(O)cc3c21 [Wee1 inhibitor 681640]; details: top dose 2 µM; top dose inferred
Procedure: as §1

[1] = top dose 4 µM, screen: GDSC drug entry 1091, top dose inferred
[2] = top dose 5.12 µM, screen: GDSC drug entry 62
[3] = top dose 5 µM, screen: GDSC drug entry 1017, top dose inferred
[4] = top dose 10 µM, screen: GDSC drug entry 1495

Row | Cell Line | AUC (Shikonin) | IC50 (Shikonin) [µM] | AUC (CGP-082996 (CINK4)) | IC50 (CGP-082996 (CINK4)) [µM] | AUC (HG-5-113-01) | IC50 (HG-5-113-01) [µM] | AUC (A-770041) | IC50 (A-770041) [µM] | AUC (XMD8-85) | IC50 (XMD8-85) [µM] | AUC (BMS-536924; [1]) | IC50 (BMS-536924; [1]) [µM] | AUC (BMS-536924; [2]) | IC50 (BMS-536924; [2]) [µM] | AUC (BIRB 0796) | IC50 (BIRB 0796) [µM] | AUC (SB-525334) | IC50 (SB-525334) [µM] | AUC (VX-702) | IC50 (VX-702) [µM] | AUC (Olaparib; [3]) | IC50 (Olaparib; [3]) [µM] | AUC (Olaparib; [4]) | IC50 (Olaparib; [4]) [µM] | AUC (Wee1 inhibitor 681640) | IC50 (Wee1 inhibitor 681640) [µM]
1 | LU-65 (large cell lung carcinoma, suspension) | 0.821 | 11.5 | 0.985 | > 5.12 | 0.976 | > 10 | 0.942 | > 5.12 | 0.953 | > 8 | 0.976 | > 4 | 0.784 | 2.6 | 0.987 | > 10 | 0.965 | > 20 | 0.987 | > 2 | 0.987 | > 5 | 0.983 | > 10 | 0.986 | > 2
2 | MC-CAR (haematopoietic neoplasm, suspension) | 0.46 | 0.787 | 0.929 | > 5.12 | 0.553 | 0.86 | 0.795 | 2.09 | 0.787 | 3.08 | 0.97 | > 4 | 0.908 | > 5.12 | 0.989 | > 10 | 0.961 | > 20 | 0.989 | > 2 | 0.989 | > 5 | 0.985 | > 10 | 0.949 | > 2
3 | MDST8 (large intestine, adherent) | 0.527 | 1.18 | 0.987 | > 5.12 | 0.816 | 5.5 | 0.98 | > 5.12 | 0.981 | > 8 | 0.944 | > 4 | 0.94 | > 5.12 | 0.963 | > 10 | 0.893 | > 20 | 0.984 | > 2 | 0.944 | > 5 | 0.986 | > 10 | 0.945 | > 2
4 | MLMA (hairy cell leukaemia, semi-adherent) | 0.33 | 0.335 | 0.962 | > 5.12 | 0.728 | 2.8 | 0.441 | 0.22 | 0.957 | > 8 | 0.886 | > 4 | 0.732 | 1.48 | 0.909 | > 10 | 0.927 | > 20 | 0.969 | > 2 | 0.961 | > 5 | 0.972 | > 10 | 0.699 | 0.455
5 | MMAC-SF (melanoma, adherent) | 0.471 | 0.828 | 0.97 | > 5.12 | 0.819 | 6.03 | 0.878 | > 5.12 | 0.966 | > 8 | 0.794 | 1.93 | 0.571 |  | 0.96 | > 10 | 0.987 | > 20 | 0.973 | > 2 | 0.986 | > 5 | 0.973 | > 10 | 0.986 | > 2
6 | MN-60 (B-cell leukaemia, suspension) | 0.369 | 0.427 | 0.973 | > 5.12 | 0.804 | 5.25 | 0.983 | > 5.12 | 0.912 | > 8 | 0.963 | > 4 | 0.959 | > 5.12 | 0.988 | > 10 | 0.907 | > 20 | 0.982 | > 2 | 0.981 | > 5 | 0.981 | > 10 | 0.988 | > 2
7 | MSTO-211H (mesothelioma, adherent) | 0.984 | > 16 | 0.981 | > 5.12 | 0.707 | 2.24 | 0.982 | > 5.12 | 0.987 | > 8 | 0.902 | > 4 | 0.957 | > 5.12 | 0.991 | > 10 | 0.985 | > 20 | 0.991 | > 2 | 0.991 | > 5 |  |  | 0.942 | > 2
8 | MZ1-PC (pancreas, adherent) | 0.196 | 0.096 | 0.901 | > 5.12 | 0.63 | 1.56 | 0.611 | 0.695 | 0.912 | > 8 | 0.729 | 1.33 | 0.63 | 0.802 | 0.954 | > 10 | 0.82 | 15.2 | 0.951 | > 2 | 0.973 | > 5 | 0.934 | > 10 | 0.959 | > 2
9 | MZ2-MEL (melanoma, adherent) | 0.351 | 0.358 | 0.954 | > 5.12 | 0.787 | 5.17 | 0.89 | > 5.12 | 0.96 | > 8 | 0.666 | 0.787 | 0.803 | 3.07 | 0.589 | 1.15 | 0.954 | > 20 | 0.971 | > 2 | 0.893 | > 5 | 0.941 | > 10 | 0.89 | > 2
10 | Mo-T (hairy cell leukaemia, suspension) | 0.56 | 1.46 | 0.986 | > 5.12 | 0.871 | 9.74 | 0.988 | > 5.12 | 0.988 | > 8 | 0.985 | > 4 | 0.988 | > 5.12 | 0.976 | > 10 | 0.877 | > 20 | 0.978 | > 2 | 0.972 | > 5 | 0.933 | > 10 | 0.988 | > 2
